From the supplement of paper PMC3334620
In all, about 33,000 sequences were measured (“E-score (-0.5 to 0.5)”: median about -0.016, highest 2% from about 0.31 on). This is one part of the list.

biological target: Cst6 (UniProt P40535); assay: PBM E-score (8-mer binding enrichment) (E-score (-0.5 to 0.5)); higher = stronger / more preferred TF binding; most listed sequences are background and not binding sites; conditions: protein concentration: 200 nM; construct: GST-DNA-binding domain
Method: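 Universal 'all 10-mer' protein binding microarrays (Agilent AMADID 015681) probed with GST-tagged S. cerevisiae TFs (full-length or DBD) made by in vitro transcription/translation (PURExpress), about 100-200 nM. Bound TF was detected with fluorescent anti-GST. Each ungapped 8-mer (which stands for itself and its reverse complement) is scored by the PBM enrichment score (E-score), a modified Wilcoxon-Mann-Whitney statistic from -0.5 to +0.5, computed with the Universal PBM Analysis Suite. Scale: above 0.35 generally sequence-specific binding.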

Sequence	PBM E-score
ACAGTGCT	-0.0311
ATCTCAAT	0.176
ACGCTAAT	-0.104
GGTTACTA	-0.0892
AACACATC	0.0529
ATCCGACG	0.0804
AGAGCGCT	-0.00983
AACTGACG	0.277
CCGTTCGC	-0.0956
AGTTGAAG	-0.0917
CCGCAGCC	-0.189
CACATAAC	0.0869
ACACCCTA	-0.0333
AAGCAACC	0.122
ATCGGAAT	0.0663
CCTCTGGA	-0.106
ACATAAGG	0.158
GCCTGTCA	0.00817
GGACGGTA	-0.188
AGGACGAT	0.0316
AGGAACCG	-0.0834
CACGCGAC	-0.147
CGCGCATA	-0.0399
CCCTTGTC	-0.105
GGAGATAA	0.0846

Sequence	PBM E-score
ATAGTGCC	-0.0667
CCGCACGC	0.0892
ACCTTACA	-0.0143
TAAGGCTA	-0.0663
AAGAGATT	0.123
GCGACGAA	0.0164
ACGTAAAA	0.354
CCTTTAAA	-0.0112
AAGCAATG	-0.0626
CGGCGTAA	0.199
CTCATACA	0.116
AATTCCAA	0.18
CTTCCAGA	-0.113
AAACAGAA	0.206
CCTCACTA	0.0149
ATCGGCCC	-0.0912
TATTAGGA	0.0232
CCTTTTGC	-0.0758
ACTTTAAG	0.122
ACGCCTGC	-0.25
GCATCCGC	-0.126
AGGATCCC	-0.102
GCTCCTAA	-0.305
ACACGCAG	-0.136
GGGATAAA	0.237

Sequence	PBM E-score
GGTCAAAC	0.0398
CCCTCGCA	-0.169
GCAACTGA	0.104
GTCGGAAC	-0.15
GCTCAGAA	0.0451
AGATACAG	0.0824
GATCTCGA	-0.0832
ACTGGCAG	-0.27
AGGCCTTC	-0.166
CGACCTTC	-0.169
ACCTGAGT	-0.176
GACATGCA	-0.0362
ATGGGTCG	-0.14
GTCGCATA	0.124
CGACAGCA	-0.0574
GCATGTGA	0.0636
ATCCCCTG	-0.23
ACTGCTTG	-0.234
ACTACAGA	0.133
TGATATAA	0.323
GAGGGAGC	-0.321
CCGGCGAG	-0.129
AGGTTTAA	0.0666
CGTCAGTA	0.275
AAAACGAG	-0.0668

Sequence	PBM E-score
ACAGTAGG	-0.0485
AGCGCACG	-0.148
ATTCAGTG	0.129
AGACTATC	-0.0567
TAGGGAGA	-0.16
AGGCGTGC	-0.0426
ATTAGTTA	0.214
CAGCCGAC	-0.28
TCCTTAGA	-0.0955
CACGTCCA	-0.112
AGACCTGA	-0.237
ATCGCGCA	-0.00583
GAACACAA	-0.0199
GTCATCAC	0.409
GCCTCTCC	-0.297
AATATTAG	0.185
ATGCTGAA	0.00037
AAGCCATC	-0.0363
ACCGTATC	0.0487
CATATAAG	0.146
CGATTACC	-0.107
AGGCTAAG	-0.0862
AGACAAAT	0.159
CTTCGCTA	-0.0133
TCAGAGAA	0.00205

Sequence	PBM E-score
AGTTCGAA	0.111
CTTCGGTA	-0.107
GCCTCTTA	0.0636
GTAACAAA	0.276
CACTGACC	-0.133
CTCTCAAC	-0.143
AGAGGATG	-0.114
AACACAGG	-0.248
ACCTCACG	0.0763
GGTATCGA	-0.0444
CTAATGCC	0.0141
CGTGAACC	-0.269
TGCCCGAA	-0.0936
GAGAAGCC	-0.233
ACGCCTTA	0.0533
GTATCCGA	-0.0626
CCACGGAA	0.00454
GAAGTCGC	-0.123
GAGCTACC	-0.0923
GCTGTGCC	-0.0933
CCAATAAG	0.0598
ACTTCCAT	0.0149
GGGTCCTA	-0.316
CATTGACC	0.149
CGACAACA	0.243

Sequence	PBM E-score
ATTTTCCA	0.0793
GGTCGCAC	-0.18
CTTCATAA	0.182
CCACTAGG	-0.32
AATACCGC	-0.128
CACTTCGC	0.0732
GCCTGTAC	-0.0146
CCGGCTCG	-0.128
CGACGAGA	-0.0521
CATGAAAA	0.23
GGGAACCC	-0.31
AACTGTAG	-0.045
AAGTATCC	-0.0686
CGGACACG	0.00971
AAATACAA	0.321
CGGGGGTC	-0.357
GCCAGCGA	-0.269
AGACCACT	-0.0953
AATAAGTC	-0.0407
AACTTATT	0.161
AACGGTTA	-0.0646
ACACTAGC	-0.131
ATGGGGCC	-0.312
AACAGAGA	-0.0315
CTATGTTC	-0.0423

Sequence	PBM E-score
AATAGTAT	0.19
CAATGAAG	0.0658
CCATCAAC	0.035
AAGCGGCG	0.254
GAGTGGGC	-0.208
AATTCTGC	0.1
CACAACCA	0.124
TACATCAA	0.283
AGATTTGG	-0.246
CCGACTCG	-0.194
AACGGAAG	-0.0423
CCGTTCAA	0.00244
GTAATCCA	0.143
AGAATCAA	0.0418
CCGAAACC	-0.163
ACTCCATG	-0.149
CACGCTAG	-0.123
AACTCATC	0.068
GGGCTAAC	-0.19
CGGCGTGC	-0.0962
GCAGAGCC	-0.191
CTATTGCC	-0.112
